Source: patent publication US20170355736A1, “MORTALIN PEPTIDES AND ANTIBODIES AND USES THEREOF FOR INHIBITING MORTALIN ACTIVITY AND TREATING A DISEASE ASSOCIATED WITH A PATHOLOGICAL CELL” (Ramot at Tel-Aviv University Ltd., priority 2014, published 2017)
Part of at least one peptide drawing is inferred or uncertain, most often the ends. Some entries repeat one wording, which the source may state once for all of them. Ends that are not written are not given here.

How the values were obtained:
[1] = test system: primary B-CLL leukemia cells; assay: Direct cell killing of primary leukemia cell preparations, PI flow cytometry; type: cell-based, human; conditions: peptides with TAT sequence at C-terminal, 20 hours, 50 µM concentration
Description: (§1) FIG. 8 is a histogram depicting cell death of B-CLL leukemia cells by mortalin peptides. […] Mortalin peptides numbers 2, 7, 8, 10, 14 and 16 and a scrambled control peptide (PC) were tested. […] Following, the cells were labeled with PI and analyzed by Flow Cytometry. Percent of dead cells (PI positive) was calculated.
as §1, with “FIG. 9” for “FIG. 8”
as §1, with “FIG. 10” for “FIG. 8”
as §1, with “FIG. 11” for “FIG. 8”, “leukemia cells and normal mononuclear” for “leukemia”
Blood drawing from B-CLL patients was approved by the Helsinki Committee of Rabin Medical Center, Petach Tikvah, Israel. Peripheral blood was collected with EDTA from three B-CLL patients and from one healthy volunteer who signed a letter of consent (named patients #1, 2, 3 and 4 and “Healthy”). The blood cells were fractionated over Ficoll gradients and mononuclear cells were purified. By cell counting it became clear that >95% of the cells separated from the B-CLL patients (28-107 million cells were purified from each ml blood) were leukemia cells. From the healthy donor, 1.4 million mononuclear cells were purified from each ml blood). The cells were treated for 20 hours with the peptides at […] concentration and cell death was determined by propidium iodide labeling and analysis by flow cytometry. […] It is noted that peptide no.

Ramos cells = assay: Mitochondrial membrane potential, JC-1 dye, FACS; type: cell-based; conditions: 50 μM; 1 hour at 37° C.; relative to cells treated with scrambled peptide (PC)
[2] = test system: leukemia and lymphoma cell lines; assay: Direct cell killing / direct toxicity (complement independent), overall statement; type: cell-based
Description: The toxic effect of these peptides was tested on 3 leukemia/lymphoma cell lines Raji (FIG. 5), Ramos (FIG. 6) and Z-138 (FIG. 7). The cells were treated for 24 hours with the peptides and cell death was determined by propidium iodide labeling and analysis by flow cytometry.
In summary, Table 6 below illustrates the relative effects of some of the peptides on mortalin-C9 binding, C9 polymerization, complement-dependent cytotoxicity and complement independent cytotoxicity (direct toxicity).

K562 cells = assay: Complement-dependent cytotoxicity (CDC), antibody + normal human serum, PI inclusion/FACS; type: cell-based; design: key to Effect on CDC: ↑: enhance; ↓: inhibit; ↑↓: effect depends on dose/time; —: no effect; conditions: for CDC with preincubation: pre-incubated 60 minutes at 37° C.; for CDC with preincubation / CDC without preincubation: relative to control without peptide (control CDC = 1.0); for cell death of K562 cells induced by antibody (Ab) and complement: in at least one of the settings, with or without pre-incubation; for Effect on CDC: summary of in vitro effects
Description: K562 cells were either pre-incubated with peptides (60 minutes at 37° C.) and then treated with Rabbit anti-K562 polyclonal antiserum (Ab) and normal human serum (as a source for complement) or treated with Ab and complement in presence of the peptide [Ziporen et al. J. Immunol. (2009) 182: 515-21]. Cell death was measured by PI (Propidium Iodide) inclusion and FACS analysis, after 1 hour treatment at 37° C. The effect of the peptides on complement-dependent cytotoxicity—The next objective was to determine which of the peptides could alter cell death and sensitize cancer cells to complement-dependent cytotoxicity (CDC). Thus, cells were incubated with the peptides prior to antibody and complement treatment (denoted herein as pre-incubation) or treated concomitantly with antibody and complement in the presence of the peptides (denoted herein as without pre-incubation). It should be noted that in cases where the peptide was incubated with the cells prior to addition of the antibody and complement (serum) (noted as “preincubation”) cell cytotoxicity begins as complement independent, and then, upon addition of the antibody and complement can continue as complement dependent. On the other hand, when the cells interact with the peptide, antibody and complement without preincubation of the cells and peptide (noted as “without preincubation”), cell cytotoxicity is entirely complement dependent.

mortalin-C9 binding = mortalin-C9 binding (Homo sapiens, UniProt P02748); assay: ELISA of mortalin binding to C9 with or without mortalin peptides; design: key to Mortalin-C9 binding: ↑: enhance; ↓: inhibit; ↑↓: effect depends on dose/time; —: no effect; conditions: for effect on mortalin-C9 binding: peptides at 170 μM, compared with positive control (C9 and mortalin without peptide); for Mortalin-C9 binding: summary of in vitro effects
Description: FIG. 1 is a histogram depicting results of ELISA (enzyme-linked immunosorbent assay) which detected binding of mortalin to C9 in the presence or absence of various mortalin peptides. Purified human C9 (0.057 μM) was attached overnight at 4° C. to wells of a 96-wells plate and then the excess of C9 was washed. Following, His-tagged recombinant mortalin (0.007 μM) was added to the wells for 1 hour at 37° C. with or without the designated peptides (each at a concentration of 170 μM), which were dissolved in 1% BSA (bovine serum albumin). Following incubation with the mortalin and peptides the wells were washed, treated for 1 hour at 37° C. with mouse anti-His antibody (diluted 1:1000) followed by 1 hour incubation at room temperature with peroxidase-labeled goat anti-mouse IgG (diluted 1:10,000), developed with O-phenylenediamine (OPD) and analyzed by an ELISA reader at 492 nm. The effect of mortalin peptides on C9-mortalin binding is shown by the increase or decrease as compared to the binding of the positive control in the absence of the mortalin peptide (first bar on the left).
Methods of detecting the binding between mortalin and C9 are known in the art [Pilzer et al. Int Immunol (2005) 17:1239-1248; Pilzer et al. Int J Cancer (2010). 126:1428-1435 and Saar Ray et al. J Biol Chem. (2014) 289(21):15014-22; each of which is fully incorporated herein by reference in its entirety]. For example, the ability of the isolated peptide of some embodiments of the invention to inhibit binding of mortalin to C9 can be determined using a purified human C9 protein (e.g., SEQ ID NO:31) which is attached to the surface of an ELISA plate, and which is then incubated with a labeled mortalin protein (e.g., a Histidine (His)-tagged recombinant mortalin, e.g., SEQ ID NO:24) with or without the isolated peptide of some embodiments of the invention for about one hour at 37° C. After incubation of the C9 and mortalin, the excess of the labeled mortalin and of the peptide is removed by washing the plate, and the amount of labeled mortalin which is bound to the surface-attached C9 protein is determined using an anti-His antibody (e.g., a mouse anti-His antibody). It should be noted that the anti-His antibody can be directly labeled or can be conjugated to an identifiable moiety, or it can be further incubated with a secondary antibody such as a peroxidase conjugated goat anti-mouse antibody. In either case, the binding of mortalin to C9 can be compared to a positive control, e.g., to the binding of mortalin protein (full polypeptide such as depicted in SEQ ID NO:24) to C9 in the absence of the isolated peptide of some embodiments of the invention.
The effect of the peptides on mortalin-C9 binding—The potential of the peptides to inhibit C9-mortalin binding was evaluated in an ELISA assay in which C9 was attached overnight to wells of 96 wells plate, followed by addition of the peptide and then His-tagged recombinant mortalin. The amount of bound mortalin was quantified colorimetrically as described in description of the drawings section with respect to FIG. 1. Wells containing only C9 and mortalin without peptide served as positive control.

Purified human C9 = Purified human C9 (Homo sapiens, UniProt P02748); assay: Zinc-induced C9 polymerization, SDS-PAGE/Coomassie; type: biochemical; design: key to C9 polymerization: ↑: enhance; ↓: inhibit; ↑↓: effect depends on dose/time; —: no effect; conditions: for effect on C9 polymerization: peptides 1 mM, mortalin 1.4 mM, 42 μM ZnCl2, 2 hours, 37° C., poly C9 band on gel; for C9 polymerization: summary of in vitro effects
Description: FIGS. 2A-B are Coomassie blue stained gels depicting inhibition of C9 polymerization by mortalin or the isolated mortalin peptides. Purified human C9 ([…]) was mixed for 15 minutes at 37° C. with BSA ([…]) as control (lanes marked as “BSA”), mortalin ([…], lanes marked as “mot”) or mortalin peptides (1 mM, lanes marked by “p” and the indicated peptide numbers) that were freshly dissolved in Tris buffered saline (TBS); and then incubated with 42 μM ZnCl2 for 2 hours at 37° C. The first lane on the left, marked “C9” refers to a positive control of the purified C9 without BSA, without mortalin or without the isolated peptides. Samples were subjected to SDS-PAGE on a 2.5-14% acrylamide gradient gel and stained with Coomassie blue. The bands of poly C9 appearing on the top part of the gel are indicated. FIGS. 2A and 2B represent two independent experiments.
The effect of the peptides on C9 polymerization—Formation of the complement membrane pores requires that multiple C9 molecules undergo polymerization and generate the doughnut-shape transmembrane complex; thus the effect of the peptides on C9 polymerization was tested. C9 polymerization occurs during C5b-9 generation [Podack and Tschopp, Proc Natl Acad Sci USA. (1982) 79(2):574-8]. Purified C9 polymerizes after a prolonged incubation at 37° C. or within 2 hours in the presence of metal ions such as zinc [Tschopp, J Biol Chem. (1984) 259(16):10569-73]. C9 was mixed with peptides and 42 μM ZnCl2 for 2 hours and the samples were analyzed by SDS-PAGE, on a 2.5-14% acrylamide gradient gel. The large (>1,000 kDa) polymerized C9 band (poly C9) appears on the top part of the gel (FIGS. 2A and 2B). […] Peptide no.

Chain of mortalin-C9 binding (P02748 22-559): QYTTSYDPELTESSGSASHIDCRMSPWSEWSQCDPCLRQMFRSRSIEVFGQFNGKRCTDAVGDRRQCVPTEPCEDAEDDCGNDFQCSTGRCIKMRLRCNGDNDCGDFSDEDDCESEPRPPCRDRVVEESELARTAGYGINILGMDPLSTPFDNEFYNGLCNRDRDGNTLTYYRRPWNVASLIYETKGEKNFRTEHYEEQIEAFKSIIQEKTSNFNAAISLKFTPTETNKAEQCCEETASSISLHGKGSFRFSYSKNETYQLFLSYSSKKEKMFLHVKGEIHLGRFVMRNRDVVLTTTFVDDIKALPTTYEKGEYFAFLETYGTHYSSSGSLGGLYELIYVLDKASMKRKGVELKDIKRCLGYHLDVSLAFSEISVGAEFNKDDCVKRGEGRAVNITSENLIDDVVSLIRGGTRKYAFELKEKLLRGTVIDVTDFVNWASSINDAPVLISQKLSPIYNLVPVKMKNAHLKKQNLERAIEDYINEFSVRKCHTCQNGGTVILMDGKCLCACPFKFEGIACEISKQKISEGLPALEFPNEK
Chain of Purified human C9 (P02748 22-559): as above

Sequence | cell killing effect on primary leukemia cells [1] | mitochondrial membrane potential (red MFI, JC-1) (Ramos cells) | cell killing effect on leukemia and lymphoma cell lines ([2]; Raji, Ramos and Z-138, 24 hours, peptides with added TAT sequence at C-terminal, PI) | Direct toxicity ([2]; summary of in vitro effects, complement independent cytotoxicity, cell lines and primary B-CLL cells) | CDC with preincubation (K562 cells; 1 mM peptide) | CDC without preincubation (K562 cells; 1-5 mM peptide) | cell death of K562 cells induced by antibody (Ab) and complement (K562 cells) | Effect on CDC (K562 cells) | effect on mortalin-C9 binding (mortalin-C9 binding) | Mortalin-C9 binding (mortalin-C9 binding) | effect on C9 polymerization (Purified human C9) | C9 polymerization (Purified human C9) | CDC without preincubation (K562 cells; 0.1 mM peptide) | CDC without preincubation (K562 cells; 1 mM peptide) | CDC with preincubation (K562 cells; 5 mM peptide) | CDC without preincubation (K562 cells; 5 mM peptide)
GEDFDQALLRHIVKEFKRET [Peptide 7] | cell killing effect | mitochondrial membrane potential dissipated (red MFI decreased) | significant cell killing effect | ↑↑ | 0.6-0.8 (1 mM) | 1.5-3.1 (1-5 mM) | significantly enhanced cell death | ↑↓ | promote C9-mortalin binding | ↑ |  |  |  |  |  | 
KLYSPSQIGAFVLMKMKETAEN [Peptide 1] |  |  |  |  | 1.6 (1 mM) |  | significantly enhanced cell death | ↑ |  | — | inhibited C9 polymerization to the same extent as mortalin | ↓↓ | 2.6 (0.1 mM) |  |  | 
NKLKEEISKMRELLARKDSETGEN [Peptide 17] |  |  |  |  | 0.8 (1 mM) |  |  | — | promote C9-mortalin binding | ↑ | inhibited C9 polymerization but significantly less than mortalin | ↓ |  | 0.8-1.4 (1 mM) |  | 
PKHLNMKLTRAQFEGIVTDLIRR [Peptide 9] |  |  |  |  | 2.2 (1 mM) |  | significantly enhanced cell death | ↑ | inhibitors of mortalin-C9 binding | ↓ |  |  |  | 1.2 (1 mM) |  | 
RKKERVEAVNMAEGIIHDTETKMEEFKDQL [Peptide 15] |  |  |  |  |  |  | significantly enhanced cell death | ↑ | inhibitors of mortalin-C9 binding | ↓ | inhibited C9 polymerization but significantly less than mortalin | ↓ |  | 1.3-3.5 | 1.6 (5 mM) | 0.8-1.4
